Test results from PubChem BioAssay AID1508624 (National Center for Advancing Translational Sciences (NCATS), 2021).
Among all 48,000 compounds or so, about 120 (0.25%) were called active. Another 4% or so got no clear call; they are omitted. The call rests on the fitted dose curve; in most records, active means well fitted activation curve with a large enough effect; inconclusive means small, poorly fitted or top-dose-only effect, or another doubt; inactive means no such curve, though single readings can be large or run the other way. The list shows a part of the results.

Experiment: Primary qHTS for Identification of Small Molecule Activators of Huntingtin-Antisense Promoter Activity; further: nearly all actives have a fitted effect of over 55% in size
Details: HEK293 HTT-AS promoter firefly luciferase reporter, 24 h; series mostly up to 57.5 µM; activity change, positive = activation: at the top concentration
Summary of the method: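 HEK293 Fluc reporter, 2,500 cells/well, 24 h pre-culture; cpds up to 57.5 uM final, 24 h 37 degrees C; Dual-Glo, 10 min RT; normalized vehicle = 0%, zero RLU = -100%.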

Activity change, positive = activation, inactive:
CC(=O)c1c(C)oc2ccc(N(C(=O)c3ccncc3)S(=O)(=O)c3ccc(F)cc3C)cc12 -40.2%
Cc1cccc(C(=O)Nc2sc3c(c2C(=O)O)CCCC3)c1 12.3%
Cc1cc(C)cc(NC(=O)CN(C)S(=O)(=O)c2ccc3c(c2)CCC(=O)N3)c1 -4.94%
COc1cc(Cl)c(NC(=O)CN(C)S(=O)(=O)c2ccc3[nH]c4c(c3c2)CCCC4)c(OC)c1 -36.9%
CCOC(=O)C(CC)Sc1nnc2[nH]c(=O)cc(C)n12 (stereo not drawn) -0.681%
COc1cccc(CNC(=O)CC(c2ccc(C)cc2)N2Cc3ccccc3C2=O)c1 (stereo not drawn) -24.9%
Cc1ccc(CNC(=O)c2cnn(-c3ccc(F)cc3F)c2C2CCN(C(=O)OC(C)(C)C)CC2)cc1 -37.4%
CCCOc1ccc(C2C(=O)N(C3CCCCC3)CC(=O)N2CCC2=CCCCC2)cc1OC (stereo not drawn) -2.87%
COc1ccc(NS(=O)(=O)c2ccc3c(c2)n(C)c(=O)c(=O)n3C)cc1Cl -22%
CCOc1ccc(Nc2c(S(=O)(=O)c3ccc(C)cc3)cnc3ccc(OC)cc23)cc1 -23.3%
COC(=O)c1ccc(NC(=O)CC2C(=O)N(c3ccccc3)C(=O)N2C2CCCC2)cc1 (stereo not drawn) -15.8%
COc1ccc(CC(=O)N2CC(=O)Nc3ccc(Br)cc3C2c2ccc(F)cc2)cc1OC (stereo not drawn) -15.1%
COc1cc2nc(NCc3ccccc3Cl)n3nc(-c4cccnc4)nc3c2cc1OC -18.3%
COc1ccc(Cn2c(C(=O)O)c(CNC3CCC(C)CC3)c3ccc(C)cc32)cc1 (stereo not drawn) -20%
COc1cc(C(=O)N2CCC(c3ccncc3)CC2)cc(OC)c1OC -16.9%
COc1cccc(CNC(=O)c2cc(-c3cccs3)nc3ccccc23)c1 -14.2%
COCCCNC(=O)CSc1nc2nc(C)c(Cc3ccccc3Cl)c(C)n2n1 -23.3%
CC(=O)N1CCCc2cc(S(=O)(=O)NCc3ccc(N(C)C)cc3)ccc21 -22.8%
COc1cccc(C(=O)Nc2ccc3nc(SCc4ccc(C)cc4)sc3c2)c1 -31.5%
Cn1nc(-c2ccccc2)c(-c2ccccc2)c(C(=O)Nc2ccc(S(N)(=O)=O)cc2)c1=O -20.4%
Cc1cccc(-n2c(SCC(=O)Nc3ccccc3Cl)nc3n[nH]c(C)c3c2=N)c1 -49.6%
CCCOc1ccc(C(=O)Nc2ccc(NC(=O)c3cccc(Cl)c3)cc2)cc1 3.9%
Cc1ccc(C)c(N2CCN(C(=O)c3cc(S(=O)(=O)N4CCCC4)c[nH]3)CC2)c1 -23.5%
COc1ccc(NC(=O)c2c(NCc3cccc(OC)c3)sc3c2CCC3)cc1 -15.7%
CCc1ccc(S(=O)(=O)Nc2cc(-c3cn4ccccc4n3)ccc2C)cc1 -2.18%
Cc1cccc(Nc2ncnc3c2cnn3C)c1C 2.35%
COc1ccc(C)c2sc(N(Cc3cccnc3)C(=O)COc3ccccc3)nc12 -33.8%
Cc1ccc2c(c1)N(C(=O)N1CCC(C(=O)NC3CCCCCC3)CC1)CCO2 -19.4%
Cc1ccc(-n2ncc3c(N4CCN(C)CC4)ncnc32)cc1 -59.9%
COc1cc(OC)cc(C(=O)NCc2ccc3c(c2)CCN3C(=O)c2ccccc2)c1 -39.1%
O=C(NCc1ccccc1Cl)C(=O)NCC(c1ccco1)S(=O)(=O)c1cccs1 (stereo not drawn) -8.97%
O=C(O)c1ccc(-n2nc(-c3ccccc3O)nc2-c2ccccc2O)cc1 -7.34%
COc1ccccc1CNC(=O)C1CCN(c2nn3c(=O)cc(C)nc3s2)CC1 -15.8%
CCC1CCCCN1CCCNC(=O)c1cc2c(Cl)nc3ccc(C)cc3c2s1 (stereo not drawn) -28.8%
COc1ccc(Cn2c(=O)c3oc4ccccc4c3n(CC(=O)Nc3cc(C)cc(C)c3)c2=O)cc1 -0.66%
Cc1c2cnn(CC(=O)NCCc3ccccc3)c(=O)c2c(C)n1Cc1ccccc1Cl -3.78%
CCC1CCCCN1CCCNC(=O)c1ccc2c(c1)N(Cc1cccc(C)c1)C(=O)c1ccccc1S2(=O)=O (stereo not drawn) -13.8%
COc1ccc(/C=C(\C#N)c2nc(-c3ccc(Cl)c(Cl)c3)cs2)cc1OC -2.96%
COc1cc(C(=O)NCC(c2ccc(N(C)C)cc2)N2CCCC2)cc(OC)c1OC (stereo not drawn) -6%
CCOc1ccc(NC(=O)CSc2nc3nc(C)c(Cc4ccccc4)c(C)n3n2)cc1 -11.9%
O=C(COc1ccccc1F)NC1CC(=O)N(c2ccc3c(c2)OCCO3)C1 (stereo not drawn) -1.73%
CCc1ccccc1NC(=O)CSc1nc2c(oc3ccccc32)c(=O)n1-c1ccccc1 -14.8%
CCOc1ccc(NC(=O)CN2C(=O)CCSc3ccc(S(=O)(=O)N4CCCC4)cc32)cc1 8.31%
O=C(NCC(c1cccnc1)N1CCOCC1)C(=O)Nc1cccc(Cl)c1 (stereo not drawn) -9.31%
CSc1ccc(CCNC(=O)c2sc3ncccc3c2-n2cccc2)cc1 -32.1%
COc1cccc(-n2cc(C(=O)NCCc3cccc(C)c3)c3ccccc3c2=O)c1 -29.7%
Cc1ccc(C)c(N2CCN(C(=O)C(C)n3nc(C)c4sc5ccccc5c4c3=O)CC2)c1 (stereo not drawn) -10.8%
COC(=O)c1ccc(NC(=O)N2CCc3c([nH]c4ccccc34)C2c2ccc(C)cc2)cc1 (stereo not drawn) -42%
CCCCOC(=O)c1ccc(NC(=O)c2ccc3c(c2)CCN3S(=O)(=O)c2ccccc2)cc1 -24.3%
Cc1ccc2nc(CSc3nnc(NC(=O)COc4ccccc4F)s3)cc(=O)n2c1 -6.61%
COc1ccc(C)cc1N(CC(=O)N1CCC(C)CC1)S(=O)(=O)c1ccc(C)cc1 -11.1%
Nc1c(C(=O)c2ccc3c(c2)OCO3)sc(Nc2ccccc2F)c1S(=O)(=O)c1ccccc1 -24.6%
COc1ccc(C2CC(=O)c3cc(-c4nc(-c5cccc([N+](=O)[O-])c5)cs4)c(=O)n(-c4cc(C)cc(C)c4)c3C2)cc1 (stereo not drawn) -5.8%
CCOC(=O)CSc1nc2sc3c(c2c(=O)n1CC)CCCC3 -23.3%
O=C(CCCn1c(=O)c2sccc2n(Cc2c(F)cccc2Cl)c1=O)NCc1ccccc1 6.49%
Cc1cnc2c(c1SCC(=O)N(C)c1ccccc1)c(=O)n(C)c(=O)n2C -5.37%
Cn1c(=O)c2c(-c3ccccc3Br)n(C(C)(C)C)cc2n(C)c1=O -30.8%
CCOc1ccccc1CNS(=O)(=O)c1cnc(N)nc1 -8.98%
COc1ccccc1Cn1c(CNS(=O)(=O)c2ccc(Cl)s2)nc2cccnc21 -29.9%
CC(=O)c1cccc(NC(=O)Cn2cnc3c2c(=O)n(C)c(=O)n3C)c1 -18.5%
CCOC(=O)c1cccc(NC(=O)Cc2ccc(NC(=O)N3CCCCc4ccccc43)cc2)c1 -8.27%
CCC(=O)N1CCc2cc(Br)cc(S(=O)(=O)N3CCCC(C(=O)Nc4ccc(CC)cc4)C3)c21 (stereo not drawn) -14.4%
COc1ccc(-n2c(CCC(=O)O)ccc2-c2ccccc2)cc1 11.1%
CCOC(=O)c1c(C)[nH]c(C)c1S(=O)(=O)N1CCCC(C(=O)N2CCN(c3ccc(Cl)cc3)CC2)C1 (stereo not drawn) -12.3%
Cc1nnc(N2CCN(c3ccccc3)CC2)c2c1nnn2Cc1ccc(F)cc1 10.2%
O=C(Nc1ccccc1C(=O)OCc1cc(=O)n2c3c(sc2n1)CCCC3)c1ccc(Cl)cc1 -24.6%
CCOC(=O)c1[nH]c(C)c(CCC(=O)N2CCN(c3cc(Cl)ccc3C)CC2)c1C -36.9%
O=C1Nc2c(c(=O)[nH]c(=O)n2-c2ccc(Cl)cc2)C1(NS(=O)(=O)c1ccccc1)C(F)(F)F (stereo not drawn) 13.6%
Cc1ccc(C)c(NC(=O)CCn2cnnn2)c1 -9.11%
NCCS 3.86%
O=C(Cc1ccccc1)NC1CC(=O)N(c2ccc3c(c2)OCCO3)C1 (stereo not drawn) -9.43%
Cc1cc2c(cc1S(=O)(=O)CCC(=O)NCc1ccccc1)OCC(=O)N2 -12.1%
COCCOC(=O)C1=C(C)NC(C)=C(C(=O)OC(C)C)C1c1cccc([N+](=O)[O-])c1 (stereo not drawn) -3.49%
CCN(CC)c1ccc(NC(=O)C(NS(=O)(=O)c2cccs2)C(C)C)c(C)c1 (stereo not drawn) -13.6%
O=C(OCc1ccccc1F)c1ccc(-c2nnn(Cc3ccccc3)n2)cc1 -5.82%
CN(C(=O)c1cnc(N2CCOCC2)c2ccccc12)c1ccccc1F -12.1%
CCn1nc(-c2ccccc2)c(-c2ccccc2)c(C(=O)Nc2ccccc2C(N)=O)c1=O -6.13%
CCCOc1ccc2c(c1)CC[C@@H]1[C@@H]2CC[C@]2(C)C(OC)CC[C@@H]12 (stereo partly drawn) 0.247%
COc1ccc(-n2nnnc2C2CCN(S(=O)(=O)c3cccc(Cl)c3C)CC2)cc1 -16%
Cc1ccc(N2CCN(Cc3nnc(-c4ccc5c(c4)OCO5)o3)CC2)c(C)c1 -6.68%
Cc1cccc(NC(=O)Cn2nc(C)c3nn(-c4ccc(Cl)cc4)c(C)c3c2=O)c1C -31.7%
COc1ccccc1N1CCN(C(=O)c2ccc3c(c2)N(Cc2ccccc2)C(=O)c2ccccc2S3(=O)=O)CC1 -23.8%
Cc1cc(C)cc(NC(=O)CSCc2cc(=O)c3cc(Cl)ccc3[nH]2)c1 -14.5%
O=C(c1cnc(N2CCOCC2)c2ccccc12)N1CCN(c2ccc(F)cc2)CC1 -27.8%
CC1(C)CC(=O)c2cc(-c3nc(-c4ccc(Br)cc4)cs3)c(=O)n(-c3ccccc3)c2C1 -4.79%
Cc1c(-c2nc(-c3ccc4c(c3)[nH]c(=O)n4C)no2)cccc1[N+](=O)[O-] -18.3%
Cc1cccc(-c2noc(CN(C(C)C)S(=O)(=O)c3ccc(Br)cc3)n2)c1 -34.7%
O=C1c2ccccc2-c2onc3c(Br)cc(NC4CCCCC4)c1c23 -5.64%
CN1C(C(=O)Nc2ccccn2)=C(O)c2ccccc2S1(=O)=O
Cc1cccc(N2C(=O)CSC23C(=O)N(CC(=O)NCCc2ccccc2)c2ccccc23)c1 (stereo not drawn) -9.38%
O=C(CSc1nnc(-c2cccs2)o1)Nc1cccc(C(F)(F)F)c1 -8.32% [at 11.5 µM, percent change from vehicle, -100% = no light]
COc1ccc(-c2cc(C(F)(F)F)n3nc(-c4ccc(Cl)cc4)cc3n2)cc1OC -1.27%
COCCNC(=O)CSc1nc2cc3c(cc2c(=O)n1CCCCCC(=O)NCCc1ccc(OC)c(OC)c1)OCO3 -1.87%
